SMILES strings stand for the structures.

The term melting point denotes the temperature of the solid-liquid transition. `CCOC(=O)N1CCN(c2nccc(Oc3ccc(NC(=O)c4cc(F)cc(N5CCCCC5)c4)c4ccccc34)n2)CC1` registered a melting point of 105 to 106 °C.

The values above are taken from a melting point compilation (Tetko et al.; mined from patent text by program, amines drawn as free bases though some values may be those of a salt).
